Records with an inconclusive call do not appear. A number of entries come with more than one value. This list holds those alone. An entry can have further records. The records of an entry are repeated measurements across runs, samples, wells, individuals or studies. What stands in brackets tells the records apart. Letters count within one entry.
Test system: HEK293T viability, ATP luminescence (CellTiter-Glo), 48 h
Experiment: viability loss in HEK293T cells – cell-based, ATP luminescence, cherry-pick samples, cytotoxicity control, dose response (AID 687005)

COC(=O)C1=C(C)N(Cc2ccc(F)cc2)C(=S)NC1c1cccc(F)c1 (stereo unspecified)
AC50: 4.4 µM [sample A] and 48.9 µM [sample B]

Reference: PubChem BioAssay AID687005 (Broad Institute, 2013)
